Results on 58 compounds are retold here after PubChem BioAssay AID463173 (ICCB-Longwood Screening Facility, Harvard Medical School, 2010).

The whole screen tested about 52,000 compounds, of which about 1,700 (3.3%) were called active. Rule as the data show it: active = survival mostly below about 52% (no sharp cut-off); inactive = mostly above about 56%. This is one part of the list.

The test concerns Wild type. Description: S. aureus survival, RN4220 and DeltatarO strains – OD600, teichoic acid synthesis inhibitors, primary screen (AID 463173). The conditions noted are these: S. aureus RN4220 wild type/DeltatarO growth, OD600, 18 h, hits give low values, screened at 18.75 µg/mL (by protocol).
Regarding `Cc1c(C(=O)N(Cc2ccc(N(C)C)cc2)CC2CCCO2)oc2ccccc12` (stereo not drawn), the survival was inactive: 77%.

For the compound `CCc1nnc(SCc2nc(-c3ccccc3Cl)oc2C)c2cc3sc(C)cc3n12`, the survival was inactive: 81%.

Consider `O=C(Nc1nc2c(F)cccc2s1)c1ccc(S(=O)(=O)N2CCOCC2)cc1`, for which the survival was inactive: 101%.

In the case of `CCCSc1ncc(Cl)c(C(=O)Nc2ccc(S(=O)(=O)N3CCCC(C)C3)cc2)n1` (stereo not drawn), the survival was inactive: 84%.

Consider `COc1ccc(CN(C(=O)c2ccccc2F)C2CCS(=O)(=O)C2)cc1` (stereo not drawn), for which the survival was inactive: 94%.

As to `Cc1ccc(NC(=O)CN2C(=O)c3cccnc3Sc3ccccc32)cc1C`, the survival is inactive: 70%.

`COc1ccc2[nH]cc(CCNC(=O)Nc3ccccc3)c2c1`: the survival was inactive: 95%.

Take `COc1ccc(C2C3C(=O)N(c4ccccc4)C(=O)C3ON2c2ccccc2)cc1` (stereo not drawn): the survival is inactive: 104%.

As to `CC(=O)N1c2ccc(S(=O)(=O)N3CCCCCC3)cc2CC1C(=O)NCc1ccccc1` (stereo not drawn), the survival was inactive: 79%.

In the case of `O=C(Nc1ccc2oc(-c3ccccc3)nc2c1)c1ccc2ccccc2c1`, the survival was inactive: 80%.

Turning to `COc1ccc(CNC(=O)C2CCCN2C(=O)NCc2ccccc2)cc1` (stereo not drawn), the survival was inactive: 109%.

As to `COc1cc2c(cc1OC)C(COc1ccc3c(C)cc(=O)oc3c1)N(C(=O)c1cccc(OC)c1OC)CC2` (stereo not drawn), the survival was inactive: 75%.

With `COCCn1c(C)cc(O)c(C(c2ccccc2)N2CCN(CCO)CC2)c1=O` (stereo not drawn), the survival was active: 0%.

Turning to `Cc1cc(C)cc(NC(=O)CSc2oc(-c3ccco3)nc2S(=O)(=O)c2ccccc2)c1`, the survival is inactive: 83%.

For `O=C(Nc1ccccc1OCc1cc(=O)n2ccccc2n1)c1cccc(Br)c1`, the survival was inactive: 76%.

As to `CCOc1ccc(NC(=O)N2CCC(CN3CCCCCC3)CC2)cc1`, the survival is inactive: 111%.

Consider `Cc1cccc(N2CCN(C(=O)c3ccc4c(c3)c(C)c(C)n4C)CC2)c1C`, for which the survival is inactive: 74%.

Regarding `COc1ccc2c(c1)c1c(c(=O)n(Cc3ccccc3)c(=O)n1CC(=O)Nc1cc(C)cc(C)c1)n2C`, the survival is inactive: 71%.

`Clc1ccc(OCc2nc(-c3ccc(-n4cccc4)cc3)no2)cc1`: the survival is inactive: 142%.

For `Cc1ccc(Cl)cc1NC(=O)CCCn1c(=O)c2cccn2c2ccccc21`, the survival was inactive: 83%.

For `Cc1ccc2c(n1)sc1c(=O)n(-c3cccc(C(F)(F)F)c3)nnc12`, the survival was inactive: 112%.

As to `COc1ccc(-c2nc3scc(CCNS(=O)(=O)c4cc(F)ccc4OC)n3n2)cc1OC`, the survival is inactive: 87%.

On to `NS(=O)(=O)c1cccc(C(=O)O)c1`, for which the survival was inactive: 106%.

As for `Cc1ccc(CN2CCSc3ccc(C(=O)Nc4cc(C)cc(C)c4)cc32)cc1`, the survival was inactive: 97%.

Take `Cc1ccc(CCNC(=O)CCCn2c(=O)c3ccccc3n(CC(=O)Nc3cc(Cl)ccc3C)c2=O)cc1`: the survival is inactive: 137%.

Consider `CC(=O)N1CCc2c(sc3nc(SCC(N)=O)n(-c4ccc(F)c(Cl)c4)c(=O)c23)C1`, for which the survival was inactive: 67%.

As for `CN(C(=O)CSc1nnc(-c2ccc([N+](=O)[O-])cc2)o1)C1CCCCC1`, the survival was inactive: 77%.

In the case of `Clc1ccc(Nc2c(-c3cccs3)nc3ccc(Cl)cn23)cc1`, the survival is inactive: 112%.

With `COc1ccc(CCNC(=O)Cn2c(=O)cc(C(F)(F)F)c3c(C)nn(C)c32)cc1OC`, the survival is inactive: 85%.

`COc1cc(-c2nc3ccccn3c2NC2CCCC2)ccc1O`: the survival was inactive: 89%.

For `CCOC(=O)c1sc2nc(C)n(CC(=O)Nc3cccc(Cl)c3)c(=O)c2c1C`, the survival is inactive: 74%.

For `Cc1ccc(C)c(CSC2=NC(C)(C)Nc3ccccc32)c1`, the survival is inactive: 74%.

In the case of `COc1ccc(CN(C)S(=O)(=O)c2nnc(NC(=O)C(C)C)s2)cc1OC`, the survival is inactive: 47%.

As for `CC(=O)c1cccc(NC(=O)CSc2nnc3ccc(-c4ccc(Cl)cc4)nn23)c1`, the survival was inactive: 132%.

Turning to `CCc1cccc(NC(=O)c2cc3c(=O)[nH]c4ccccc4c3n2C)c1`, the survival was inactive: 90%.

In the case of `CC(C)(C)c1cc(CN2CCOCC2)c(C(=O)O)o1`, the survival is inactive: 93%.

In the case of `COc1ccccc1NC(=O)C1=C(C)Nc2nc(SCc3ccccc3F)nn2C1c1cccnc1` (stereo not drawn), the survival was inactive: 85%.

Take `Cc1cccc(Nc2nc3nonc3nc2Nc2cccc(C)c2C)c1C`: the survival is inactive: 102%.

As for `C=CCc1c(C)nc2nc(SCC(=O)Nc3cccc(Cl)c3)nn2c1C`, the survival was inactive: 81%.

Consider `CC(C)CN(CC(C)C)c1nc(-c2ccc(Cl)cc2)nc2ccccc12`, for which the survival was active: -1%.

On to `Cc1c(Cl)cccc1NC(=O)c1ccc2c(c1)nnn2C1CCCC1`, for which the survival was inactive: 120%.

In the case of `CCOC(=O)c1c(C)oc2nc(C)nc(N(CC(C)C)CC(C)C)c12`, the survival is inactive: 71%.

Turning to `Cc1cc(C)c2[nH]c(=O)c(CN(C(=O)Nc3ccccc3F)C3CC3)cc2c1`, the survival was inactive: 102%.

For `O=C(CCS(=O)(=O)c1ccccc1)N(Cc1cccnc1)c1nc2c(Cl)cccc2s1`, the survival is inactive: 82%.

As for `O=C(Nc1ccccc1C(=O)OCc1cc(=O)n2c3c(sc2n1)CCCC3)c1ccccc1`, the survival is inactive: 94%.

In the case of `O=C(NCCCN1CCN(c2ccc(F)cc2)CC1)C1COc2ccccc2C1` (stereo not drawn), the survival was inactive: 65%.

Turning to `COc1ccc(Cl)cc1NC(=O)Cn1c(=O)n(Cc2nc(C)no2)c(=O)c2ccccc21`, the survival was inactive: 68%.

As for `CCc1ccc(NC(=O)c2ccc3c(=O)n4nc(Nc5ccccc5C)sc4nc3c2)cc1`, the survival was inactive: 71%.

For `S=C(NCc1ccco1)Nc1ccccc1`, the survival was inactive: 115%.

For `Clc1cccc(-n2ncc3c(NCCc4ccccc4)ncnc32)c1`, the survival was inactive: 87%.

`CCCOc1ccc(C2C(=O)N(C3CCCCC3)CC(=O)N2CCc2ccccc2)cc1OC` (stereo not drawn): the survival was inactive: 93%.

For `CCOC(=O)c1cccc(NS(=O)(=O)c2cc(-c3cnc(C)o3)ccc2OC)c1`, the survival was inactive: 110%.

On to `CN(C)C(=O)c1ccc(NC(=O)Cn2nc(-c3ccccc3)c3ccccc3c2=O)cc1`, for which the survival was inactive: 65%.

`CCCCCNC(=O)c1cc2c(=O)n3ccccc3nc2n1C`: the survival is inactive: 83%.

Turning to `COc1ccc(OCCn2cnc3ccccc32)cc1`, the survival is inactive: 107%.

With `CCCCNC(=O)C(CC)Sc1nnc(-c2ccc(F)cc2)c(-c2ccc(F)cc2)n1` (stereo not drawn), the survival is inactive: 84%.

Take `Cc1c(C=Nc2ccc(SC#N)c(Cl)c2)c(O)[nH]c(=O)c1C#N`: the survival was inactive: 97%.

On to `Cc1cccc(NC(=O)c2c(NC(=O)c3cccs3)sc3c2CCC(C)C3)c1` (stereo not drawn), for which the survival is inactive: 75%.
